Measurements taken from PubChem BioAssay AID686979 (National Center for Advancing Translational Sciences (NCATS), 2013).
In all, about 420,000 compounds went through this assay and about 50,000 (12%) were called active. The shares of active, inactive and inconclusive entries below differ from those in the screen. Calls come from the whole dose curve; as a rule, active = well fitted inhibition curve with a large enough effect; inconclusive = small, poorly fitted or top-dose-only effect; inactive = flat fitted curve, though single readings scatter. Potencies of inconclusive entries are left out as doubtful fits.

assay: qHTS for Inhibitors of human tyrosyl-DNA phosphodiesterase 1 (TDP1): qHTS in cells in presence of CPT; settings: chicken DT40 Tdp1-/-;hTDP1 cells + 20 nM CPT, ATP luminescence, 48 h; series mostly up to 46.2 µM; note: nearly all actives have a fitted effect of over 55% in size
Outline: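 Chicken DT40 Tdp1-/- cells stably complemented with human TDP1 were seeded at 400 cells/well in medium containing 20 nM camptothecin, exposed to pin-transferred compounds, and grown at 37 °C for at least 48 hr. Viability was read as ATP luminescence.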
Potency is the fitted concentration of half-maximal effect; tags give direction and shape of the fitted curve.

Structure (SMILES) | Potency
COc1ccccc1C(=O)NNC(=O)C(=O)NC(C)C | inactive
O=C1Cc2cc(S(=O)(=O)Nc3cccc(C(F)(F)F)c3)cc3c2N1CCC3 | inconclusive [inhibitor, full curve, poor fit]
O=c1cc(O)c2sc3nc4c(c(C(F)(F)F)c3c2[nH]1)CCCCC4 | inactive
CCOc1ccc(S(=O)(=O)N2CCOCC2)c2ccccc12 | inactive
CCn1c(SCc2ccccc2)nnc1-c1cccs1 | active: 18.4 µM
CN(C(=O)c1ccc(NC(=O)C2CCCN(C(=O)OC(C)(C)C)C2)cc1)C1CC1 (stereo not given) | inconclusive [inhibitor, single point]
O=C(CCCn1c(=O)c2ccccc2n(CC(=O)NCc2ccco2)c1=O)NCc1ccco1 | inactive
COC(=O)[C@@]1(Cc2ccc(OC)cc2)[C@H]2c3cc(C(=O)N4CCCC4)n(Cc4ccc(S(C)(=O)=O)cc4)c3C[C@H]2CN1C(=O)c1ccccc1 | inconclusive [inhibitor, single point]
Cc1cccn2c(=O)cc(COc3cccc(NC(=O)Nc4cccc(Cl)c4)c3)nc12 | inactive
CCS(=O)(=O)c1nc(S(=O)(=O)c2ccc(C)cc2)c(N2CC(C)CC(C)C2)s1 (stereo not given) | inconclusive [inhibitor, single point]
Cc1cccc(COc2ccc(/C=N/NC(=O)c3nnn(-c4nonc4N)c3C)cc2)c1 | inconclusive [inhibitor, single point]
CCc1nc2ccc(C(=O)NC3CCC(C)CC3)cc2nc1CC (stereo not given) | inconclusive [inhibitor, single point]
COc1cc2ccccc2cc1C(=O)Nc1ccc(C)cc1 | inconclusive [inhibitor, single point]
Cc1ccc(NC(=O)CN(c2ccc(Cl)cc2)S(=O)(=O)c2cc([N+](=O)[O-])ccc2Cl)c(C)c1 | inconclusive [inhibitor, single point]
NC(CCc1ccccc1)c1csc(Nc2ccc(C(=O)c3ccccc3)cc2)n1 (stereo not given) | active: 16.4 µM
COc1ccc(OC)c(CNC(=O)C(C)n2nc(C)c3c(C)n(-c4ccccc4)nc3c2=O)c1 (stereo not given) | inactive
CN(C)CCC=C1c2ccccc2C(C)(C)c2ccccc21 | inconclusive [inhibitor, single point]
O=C1C(Nc2cccc(O)c2)=C(N2CCCCC2)C(=O)c2ccccc21 | active: 8.2 µM
Clc1ccc(-c2nc3ccc(Br)cn3c2Cc2ccsc2)cc1 | active: 16.4 µM
COc1ccc(C(C)C)cc1S(=O)(=O)NCCc1c(C)[nH]c2c(Cl)cccc12 | active: 29.1 µM
CCCN(CCC)C(=O)Nc1ccc(F)cc1F | inactive
CCOC(=O)C(=Cc1ccc(Br)cc1)C(=O)OCC | active: 11.6 µM
CCN(CC)c1ccc2nc3c(=O)n(C)c(=O)n(C)c3nc2c1 | inconclusive [inhibitor, single point]

Structure (SMILES) | Potency
CCOC(=O)C1=C(C)NC(SCC(=O)OC)=C(C#N)C1c1ccc(C(=O)OC)cc1 (stereo not given) | inconclusive [inhibitor, single point]
Cc1nn(C)c(C)c1CN(C)C(=O)c1nn2c(c1Br)NC(c1cccs1)CC2C(F)(F)F (stereo not given) | inconclusive [inhibitor, single point]
Cc1oc2c(cc(NS(=O)(=O)c3cccs3)c3ccccc32)c1C(=O)OC(C)C | inconclusive [inhibitor, single point]
Cc1ccc(-c2nnc(Oc3ccc(NC(=O)c4ccccc4)cc3)c3ccccc23)cc1 | inconclusive [inhibitor, single point]
CCCCCCn1c(=O)n2n(c1=O)C[C@]1(OC(=O)NC3CC3)CN(S(=O)(=O)c3ccc(C)cc3)C[C@]1(O)C2 | inconclusive [inhibitor, single point]
CCOCc1nnc(NC(=O)CCS(=O)(=O)Cc2ccccc2)s1 | active: 9.2 µM
CCOc1ccc(N(CC(=O)N/N=C/c2ccccn2)S(=O)(=O)c2ccc(Cl)cc2)cc1 | inconclusive [inhibitor, single point]
CC(C)N1CCCC(C)(C(=O)Nc2cccc(Oc3ccccc3)c2)C1 (stereo not given) | inconclusive [inhibitor, single point]
CCOC(=O)C1CCN(CC(=O)c2c(C)n(C)c3ccc(OC)cc23)CC1 | inactive
CN1C(=O)C(C)(C)c2cc(S(=O)(=O)N3CCN(c4ccc(F)cc4)CC3)ccc21 | inconclusive [inhibitor, single point]
Cc1c(Cc2ccccc2)c(=O)oc2c(O)c(O)ccc12 | inactive
CC(C)c1ccc(NC(=O)[C@H]2O[C@@H]3OC(C)(C)O[C@@H]3[C@H]3OC(C)(C)O[C@H]32)cc1 | active: 5.17 µM
CCNc1ncc2nc(-c3cc(F)cc(F)c3)c(=O)n(CCC#N)c2n1 | inactive
Cc1cc(OC(C)C(=O)N(Cc2ccco2)Cc2ccco2)cc(C)c1Cl (stereo not given) | active: 14.6 µM
CC(C)NC(=O)N(C)C[C@H]1OCCCC[C@@H](C)Oc2ccc(N(C)C)cc2C(=O)N([C@H](C)CO)C[C@@H]1C | inconclusive [inhibitor, full curve, poor fit]
NC(=O)C1=C[C@H](c2csc3ccccc23)C[C@H](OCCCCO)O1 | inconclusive [inhibitor, partial curve]
Cc1ccc(NC(=O)C(c2ccccc2)N2CCN(CC(=O)NC3CC3)CC2)cc1Cl (stereo not given) | inconclusive [inhibitor, single point]
Cc1ccccc1CN1CCN(S(=O)(=O)c2cccs2)CC1 | inactive
COc1ccccc1OCC(=O)Nc1cc(Cl)ccc1N1CCCCC1 | inactive
COc1ccc(C)cc1S(=O)(=O)N(CC(=O)Nc1cccc([N+](=O)[O-])c1)c1ccccc1 | active: 14.6 µM
CC(NC(=O)CCNC(=O)c1ccco1)c1ccc(F)cc1 (stereo not given) | inactive
O=[N+]([O-])/C(C(=C(Cl)Cl)N1CCN(Cc2ccccc2)CC1)=C1\NCCN1Cc1ccc(Cl)nc1 | inconclusive [inhibitor, single point]
